# Reference: the supplement of paper PMC11417369
# ± gives the standard deviation of the averaged measurements. The list shows a part of the results.
# System: PfAP2-LT AP2 domain (GST-tagged)
# Assay: gcPBM binding intensity (ln(normalized median fluorescence intensity)); higher = stronger DNA binding
# In short: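 Alexa488 anti-GST antibody, scanned at 488 nm, detected GST-tagged P. falciparum DNA-binding domains that had been expressed in E. coli and incubated for 1 h on an Agilent 4 × 180k array. The array carried primer-extended double-stranded 36-bp intergenic genomic probes and negative controls. Binding intensity is the highest Masliner-normalised natural-log median intensity across replicate spots of either orientation of each probe.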
row,Sequence,gcPBM binding intensity (ln)
1,ATTTTATCTTTAAACTGTACGTATTAATATGTAGAA [XGTACX_site3077],8.55 ± 0.38
2,AGTATACATATATATACACACATATATATATATATA [CACACA_site300],9.83 ± 0.34
3,ATAAAAATATTATAAGCACACATATATATATATATA [CACACA_site8781],9.59 ± 0.3
4,TGTGTATTTATAAATACACACCAAATGTTAATATAT [CACACA_site6904],8.87 ± 0.31
5,GTAAAATGATATAAATGTACATAATATATATATGTC [XGTACX_site4049],8.99 ± 0.45
6,AATTTTTTTTTTAGACGTACAAGAAAAAACAAAAAA [XGTACX_site4990],8.41 ± 0.4
7,TATATGAAGTACACAATACACACTAATTATATATAA [CACACA_site2608],9.02 ± 0.4
8,AACTATAAAAATTTTACACACTGTTTTTAAATAATG [CACACA_site5928],8.72 ± 0.42
9,TTATGCCTTTAATATACACACTAATATTTTTTTGGC [CACACA_site5171],8.79 ± 0.42
10,TATGAAATTATAATTACACACAGGAAAATAAAATGT [CACACA_site1517],9.09 ± 0.4
11,ATATAATAATAAGGCACACAAATTAAAATATAAAAA [CACACA_site3710],8.93 ± 0.52
12,TTATGTTCTTTAAAACCACACACCCCCCAACCCCCC [CACACA_site8742],9.88 ± 0.23
13,AATGTTTTATTTTGAAGTACATTTAAGAATTTTTTA [XGTACX_site7814],8.27 ± 0.56
14,TATATATGCATATACATACACACATAACACATACGT [CACACA_site3833],9.27 ± 0.33
15,ATATAGATGCATAATACACACATCAGATAATTAACC [CACACA_site6871],9.25 ± 0.34
16,ATAAAAATTGATTATACACACGCGCCCAGACAACAA [CACACA_site5870],9.31 ± 0.35
17,TTTTTTTTTTTTTTTTGTACTCATATCTACTATCAT [XGTACX_site274],8.67 ± 0.48
18,ACAAGGTTTACGGGTAGTACAAATTTTTGAACATCT [XGTACX_site4739],8.65 ± 0.51
19,AGCCAAACCTTAAATTTAGCAATAAGTTTACAGGTC [CACACA_negctrl_site360],8.68 ± 0.42
20,ATTAAAAGTTTATACAAATAAAAAACAAAACAAAAA [CACACA_negctrl_site1030],8.78 ± 0.54
21,AAGGATCACAGACAAACACACATATATATATATATA [CACACA_site4469],10.1 ± 0.16
22,TTTTGACCATATCTGTTGCACTTTTGTGCTATTCGA,8.88 ± 0.61
23,CATTATGTCGTAAATACACACATACATATACATACA [CACACA_site8383],9.12 ± 0.26

row,Sequence,gcPBM binding intensity (ln)
1,AAATAATTTGTTGACACACACACACCCATACAGATA [CACACA_site5291],9.77 ± 0.14
2,TAAATTTTTTCCTCCTGTACTTATTATATTTTTTTG [XGTACX_site1572],8.73 ± 0.51
3,ATTAATTCGTTTTGTACACACATAATGAGTAATTTA [CACACA_site7118],8.94 ± 0.4
4,ATGTGTGTATACATCAATTATATATATATTATGTAT [GTGCAC_negctrl_site720],9.19 ± 0.3
5,AAAATAAAAATAACAACACACATATACTATAATATT [CACACA_site2769],9.14 ± 0.4
6,TATGTTAAAAAAAAATGTACATATGTTTTTGTTAAA [XGTACX_site4754],8.39 ± 0.55
7,GACCCATTATTTTATTGTACTTTTATTATAACGTGA [XGTACX_site156],8.86 ± 0.41
8,AAATGAATAATGATATACAAACAAATCATGTGTTAA [XGTACX_negctrl_site150],8.81 ± 0.48
9,TTTCCCCCATATAATGAACACACACCCTCCTCATAA [CACACA_site8110],9.84 ± 0.41
10,ATACATTCAAAATATACACACATATATATATAATAT [CACACA_site950],9.06 ± 0.3
11,ATTTTTTTTAATTTGTACAAATTTTGTTCACAATTT [CACACA_negctrl_site1301],8.91 ± 0.52
12,TACCATGTTCAAATTACACACATATAATCTAATATA [CACACA_site2008],8.81 ± 0.32
13,TTTATTATTATATTATTTTAATTTTTCTTTAGTACA [GTGCAC_negctrl_site392],8.38 ± 0.53
14,CATTTCATTTCTTAATGTACTTTATTCCACCACATA [XGTACX_site5943],8.81 ± 0.52
15,ATAAATATATGAAGTTGTACAAATAATTAACATTAT [XGTACX_site5740],9.08 ± 0.49
16,AAATTAAATAAATTTACACACTAAAAATTACATATA [CACACA_site1054],8.55 ± 0.45
17,TTATATATGTATTAATGTACATAGTTGAGAAAGGTA [XGTACX_site1511],8.78 ± 0.34
18,AAAGGGACATATATATCACACACAAAAATTAGTCCC [CACACA_site8897],9.39 ± 0.44
19,TAATATCTACATATATGTACATATATATATATATAT [XGTACX_site7979],9.48 ± 0.028
20,GGAAGCTAATTACACACATGCATATTTTTTTTTCAA [TGCATGCA_site548],9.04 ± 0.36
21,ATAATATAGAACAATACATGCAAATGGCTTAAATTT [TGCATGCA_site521],8.94 ± 0.47
22,ATGGGACAGATATATACACACATATAAATATAAATA [CACACA_site6684],9.2 ± 0.46
23,TAAATATAATAAGAACAAACAAAATAGTACAATATA [TGCATGCA_negctrl_site364],8.99 ± 0.42

row,Sequence,gcPBM binding intensity (ln)
1,TTTTTTTTAAATTGTGGTACACAAATTCATATATAT [XGTACX_site8944],8.54 ± 0.44
2,TGTTAACTTAAAAAAATACCTACGGAAAAATCACAA [TGCATGCA_negctrl_site433],8.58 ± 0.42
3,GTCATATTATTATTACGTACTTAAATATATAATATA [XGTACX_site3405],8.73 ± 0.38
4,AAAAGAAAAAAAAGTACACACATGTATATTAATCGT [CACACA_site2528],9.37 ± 0.4
5,TATGTGTATAATAAAAGTACATATATTATTATATAA [XGTACX_site8556],8.68 ± 0.42
6,TATTTCGTAATTTAATAATATACAAGAAATATATAT [XGTACX_negctrl_site143],8.38 ± 0.36
7,TAAAATAATAAAACAACACACAAATAGTTAAAATAG [CACACA_site1680],9.07 ± 0.45
8,ATTGACGTCATATAAACATGCACATTTTGGATGTTT [TGCATGCA_site985],8.86 ± 0.36
9,CATATAATAAAAAATGTACACACATAAGAAAATTTA [CACACA_site8943],9 ± 0.48
10,AATAAATAAAAAATTACACACATATTTATAAATATA [CACACA_site7584],8.82 ± 0.49
11,AAGATAAACTTTTTTAATTAATTTAATTTTTTTTTT [GTGCAC_negctrl_site386],8.31 ± 0.64
12,CACAAAAATAAATATAAACACACAATAAATAAATAA [CACACA_site8197],9.05 ± 0.47
13,TAAAATAAGTTAAAAAGTACATAATTATAATAAATA [XGTACX_site8108],8.6 ± 0.52
14,TTTGTTTTTATTTACACATGCAAAAAAAAAAAAAAA [TGCATGCA_site655],8.34 ± 0.3
15,TTATAATAGTTAATATGTACATATTTAATAAATAAT [XGTACX_site3183],8.53 ± 0.35
16,TACAAAATACAAAAATGTACATAAAAATTTATAAAA [XGTACX_site6861],8.82 ± 0.49
17,TACAGATACGGACACACACACACACCCAGACAAAAA [CACACA_site4432],10.2 ± 0.46
18,ATATTAAAATATAATCGTACAATTAAATTTTTTTTT [XGTACX_site2739],8.33 ± 0.49
19,ATATAGAATATATTAACATGCAATAAGTAAAGGGGG [TGCATGCA_site1022],9.67 ± 0.13
20,CACTTCATAAAAATTGCACACATATAATAATGTACA [CACACA_site8692],8.98 ± 0.33
21,ACAATGAAATATTCATGTACATATAAATAATAGTGT [XGTACX_site3762],8.98 ± 0.38
22,TCATATAATCAAATATGTACATATTTTCAATTGAAT [XGTACX_site6831],8.75 ± 0.38
23,ATATAATTTGATGGTTAACACACATATATATTATAT [CACACA_site8775],9.08 ± 0.33

row,Sequence,gcPBM binding intensity (ln)
1,TTATTTATTTTTTATACACACAATTATCTTTTTAAG [CACACA_site6162],8.81 ± 0.51
2,ATATTTATTTAATGAACACACGATATATTATTTTAT [CACACA_site1602],8.73 ± 0.34
3,TAAAAACATTTAAATTGTACGGAAATAAAAATTTTT [XGTACX_site8225],8.45 ± 0.42
4,TAAATCATTTATTAAGTGCAATATTCTTTTTGAGAT,8.44 ± 0.38
5,TGTTTTCCCTTTAGTGTGCACGTATTTCTATTAACA [GTGCAC_site9847],9.17 ± 0.4
6,ATATAAATATTAAATACACACATTTTTGATTAGGTT [CACACA_site7461],8.9 ± 0.4
7,AAAATGATAATACCAAGTACACATATGAAAAATACA [XGTACX_site6763],9.15 ± 0.5
8,TCATAACAACTTTGTGTGCACATAAAACATGTATAT,9.81 ± 0.26
9,TATAAGACATGATATATACACACCTTGTTTTAATTT [CACACA_site2266],8.87 ± 0.35
10,TTTTTTTTTTCATTCACACAAAAAAAAAAAATTTAT [CACACA_site5921],8.04 ± 0.39
11,AATAAAAATATATCCACACACATATATATATATGTA [CACACA_site576],9.17 ± 0.17
12,ATATGAATATATATATGTACTAATTAGTAGTTTACG [XGTACX_site6273],9.04 ± 0.4
13,GAAGATATGTAAAATTGTACATATTATTTTATTTTA [XGTACX_site5302],8.56 ± 0.47
14,AGAAATTTACAAATACGTACACACATATATATATAT [XGTACX_site3141],9.49 ± 0.63
15,CTGATCCACATTTATACACACCTCGGTTTGTAGAGA [CACACA_site4393],8.93 ± 0.38
16,AAAATATATAATATTTGTACATATTGATGGCAACAG [XGTACX_site6454],8.81 ± 0.4
17,TTTTACACTTTTTTTTGTACACACTAAAAAGATTAA [XGTACX_site8407],8.59 ± 0.52
18,AAAGGTTCATAAAAATGTACATAATTATTTACATGT [XGTACX_site2722],8.72 ± 0.47
19,CAAATCATATATAGCACACAAATTCTTTATTATTAT [CACACA_site2815],8.9 ± 0.5
20,CACAAAAATAAACACACACACATATATATTTATTAT [CACACA_site5923],9.68 ± 0.18
